# In the supplement of paper PMC11417369:
# ± gives the standard deviation of the averaged measurements. The list shows a part of the results.
# Tested on: PfAP2-G AP2 domain (GST-tagged)
# Test: gcPBM binding intensity (ln(normalized median fluorescence intensity)); higher = stronger DNA binding
# How it was run: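 Using an Agilent 4 × 180k array, primer-extended double-stranded 36-bp intergenic genomic probes and negative controls were exposed for 1 h to GST-fused P. falciparum DNA-binding domains expressed in E. coli. Binding was carried out in 1× PBS with 1% milk, 0.2 mg/ml BSA, 0.5% salmon testes DNA and 0.03% Triton X-100, and protein was detected with Alexa488 anti-GST antibody and a 488 nm scan. Binding intensity is the highest Masliner-normalised natural-log median intensity across replicate spots of either probe orientation.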
row,Sequence,gcPBM binding intensity (ln)
1,AATAATTCTTAAAGGTGTACAATATGTATATAAGAA [XGTACX_site595],11.7 ± 0.6
2,ATTATGAATTTTAATTGTACATTATTATAGAATGTA [XGTACX_site619],10.7 ± 0.48
3,AAAAAAAAAAGAAAAGGTACACAGAATATATATATA [XGTACX_site6914],11.1 ± 0.91
4,AAAAAAATAAGACACACACACAAAAAAATAAAAATA [CACACA_site6357],10.1 ± 0.26
5,AAAAATTCTTCCCAAGCATGCGCGCGTAAAATATTT [TGCATGCA_site77],10.4 ± 0.2
6,AAATTTTTTATTAGTAGTACGCATAAATATATGTAT [XGTACX_site1934],11.4 ± 0.87
7,AAAATTAAAATATCACGTACGAAGAAAAAATTAAGA [XGTACX_site6437],11 ± 0.47
8,TACACCCACCAACACACACACACACTAATAAAAAAA [CACACA_site8060],10.2 ± 0.44
9,CCTTTCCTAGCACATGCACACAAAAAAAAAAAAAAA [CACACA_site8396],10.3 ± 0.59
10,AAACGGCTATTAAAATGTACATGTAAATATATTAAA [XGTACX_site918],11 ± 0.59
11,AATACATATGGGTGTACACATTATATATATATATAT [CACACA_site4601],11.6 ± 0.89
12,ATCTTTTTACTTAATACACACACACCCAAAAAAAAA [CACACA_site8221],10.4 ± 0.33
13,ATATATATATCAAAATGTACAAAAATAGAATTTAAA [XGTACX_site8292],10.6 ± 0.28
14,CAGTAGTTTTTATGGGTGCAAAACATATATATAACA,10.6 ± 0.49
15,ACATTTTGTAAAGAATGTACATATATATATATATTC [XGTACX_site8004],10.9 ± 0.47
16,TATATATATATATACACACACACACCCCAAAGCGTA [CACACA_site64],10.5 ± 0.74
17,AAAAAATGCGACATGTGTACACATATATATATATAT [XGTACX_site1679],11.8 ± 0.99
18,GAAAATATTACATACACGCACACATTAATATATTTA [CACACA_site2604],10.3 ± 0.3
19,CATGAATATTTATACATGCACACTAAAATAAAGAAT [CACACA_site2412],10.16 ± 0.078

row,Sequence,gcPBM binding intensity (ln)
1,GAGGGTATAATAAAAGCACACACAAAGATATAAATA [CACACA_site9087],10.1 ± 0.23
2,TTGTGTACATATTAAGTGCATATATATATATATATA,11.7 ± 1.2
3,TATATATATATAGATGCATGCAATTACATATAACAA [TGCATGCA_site118],9.89 ± 0.17
4,TACATCAAACAAGTATGTACATATATATATATATAT [XGTACX_site7415],11.1 ± 0.7
5,ATTTTCTATATCTTTCAACACACAAATTTTTTTTTC [CACACA_site7918],9.94
6,AATAAATAGTAGTAGGTGCTACTATATTATATATAT [GTGCAC_site9452],9.675 ± 0.035
7,TATGTAATAATAAACGGTACACTATATTGTATGAAA [XGTACX_site4648],10.7 ± 0.4
8,GCATATGATGAGCATATAATCATAAGAAAAAAAAAA [CACACA_negctrl_site701],9.64 ± 0.014
9,TTCTGTATAACACAAATTTTTTTTTATTCACTCTGT [TGCATGCA_negctrl_site410],9.77 ± 0.26
10,TTTTTATCAAATAAATGTACACATATTAAATGAAAT [XGTACX_site555],11.4 ± 0.81
11,ATATTAAAATTAAACGCATGCATATATTATAAAAGA [TGCATGCA_site231],9.94 ± 0.11
12,CTAATTAATGGGTACATACACACATATATACATACA [CACACA_site743],11.3 ± 0.82
13,GGAAATAATATTATTACACACCAAAATGTATAAAAA [CACACA_site4036],10.14 ± 0.057
14,AAAATATTCACGTGTACATATATATATATATATTAT [TGCATGCA_negctrl_site192],11.4 ± 0.83
15,AACACTTCATACACGTGTACAAATATAATATAGACA [XGTACX_site5671],11.2 ± 0.73
16,TTATATCTTATAAAATGTACATAAAATATATAATAT [XGTACX_site7647],11.2 ± 0.61
17,ATATTTTTCTTAAGTACACACTAAATAGAAACTAAA [CACACA_site4191],11.4 ± 1
18,ATTAATTATATAATATGTACATATTACAAATATATA [XGTACX_site1478],11.2 ± 0.71
19,AAAAAAAAAAAAAACACACACACACGCATACAAAAT [CACACA_site6794],10.3 ± 0.18

row,Sequence,gcPBM binding intensity (ln)
1,TATTTCATAATAAATTGTACGCGTAGAAAACCATGA [XGTACX_site7506],11.6 ± 0.94
2,AATAATATAACAGAACAAAACTAAATATACACATAT [TGCATGCA_negctrl_site31],9.9 ± 0.13
3,GAGAAAAATAAATACACACACATAAATAAATACATA [CACACA_site5102],10 ± 0.11
4,TATGTATATTTTAATTGTACGTGTATGGTTGTAAAT [XGTACX_site8738],11.5 ± 1.1
5,TGATTAATAATTTTCTTCATACATTAAACATCTTTT [TGCATGCA_negctrl_site342],9.67 ± 0.099
6,TTTTTTTTTTCATTAACACACATAAATATATATATA [CACACA_site5759],10 ± 0.2
7,CACTAATAGTGGATTACACACATATATCTGTATTTA [CACACA_site5403],10.09 ± 0.042
8,TTAATGTTATATGTGTGTACATATAAGTTTAGTAAA [XGTACX_site4651],11.3 ± 0.91
9,ATAGTATCTGGTAGCTGTACGAGTCGTAGAGTGTAA [XGTACX_site4936],11.3 ± 0.82
10,ATATAAAACTAATTTCTTTTTCTCCTTTTATTTTGT [CACACA_negctrl_site1251],9.6 ± 0.099
11,AATATATATTAATAAAGTACAGGAAATATTTTTACC [XGTACX_site7052],11.5 ± 0.85
12,AAAATACATAGACACACACACACACGGATATAAATA [CACACA_site7643],10.2 ± 0.26
13,ATATATATATATAAATGTACAGATATATTTTTTATT [XGTACX_site5445],10.9 ± 0.44
14,TTTAATTTGATAGACACATGCACACGTGCAATACTT [TGCATGCA_site777],10.06 ± 0.092
15,TACTAAAAAATATAAACACACATATATTTTACATAT [CACACA_site2042],9.8 ± 0.11
16,GACATAAAATTCAAAGTGCATAAATAAAATAAACCC,10.3 ± 0.26
17,TTTTTTTTTTTTTTCTGTACAAATTAAATCTACATA [XGTACX_site8285],10.6 ± 0.64
18,ATATTTAAAAAATGATGTACAAAAATGTAGTCACAC [XGTACX_site6208],11.2 ± 0.78
19,GAAATTAAATGACATACACACTATATTATAGATTTT [CACACA_site7468],9.82 ± 0.11
